Measurements reported in patent publication US11661404B2, “Prodrug compounds activated by AKR1C3 and their use for treating hyperproliferative disorders” (priority 2018, dated 2023).
“Also recorded” adds a separate entry of the source. For some of these results: At least one read-out could not be matched to a standard name with certainty. At least one compound was matched to its structure with a doubt left. Some entries share one result that the patent states for a list of compounds.

What was measured:
[1] = target: T1, recombinant human AKR1C3 (Homo sapiens, UniProt P42330); experiment: Kinetics assay: metabolism of prodrugs by recombinant human AKR1C3; type: biochemical; details: for kcat/Km (catalytic efficiency) / Km / kcat: NADPH, pH 7.4, 37° C.
T1 construct: His6 (hexahistidine) (C); made in house; host or cells: E. coli BL21(DE3)
T1 sequence (P42330 1-323): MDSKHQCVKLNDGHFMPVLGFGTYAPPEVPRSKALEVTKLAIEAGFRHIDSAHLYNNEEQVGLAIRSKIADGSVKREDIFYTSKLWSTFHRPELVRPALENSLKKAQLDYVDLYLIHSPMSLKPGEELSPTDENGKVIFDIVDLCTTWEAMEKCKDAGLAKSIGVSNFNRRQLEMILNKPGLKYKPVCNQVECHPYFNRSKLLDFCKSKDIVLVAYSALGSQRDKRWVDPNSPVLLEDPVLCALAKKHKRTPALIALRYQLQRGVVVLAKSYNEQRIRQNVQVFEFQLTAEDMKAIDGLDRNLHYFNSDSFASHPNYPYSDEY
Protocol: E. coli BL21(DE3) cells expressing the pET22b-AKR1C3 construct with a C-terminal hexahistidine (His6) tag and constitutive promoter was generated. Colonies of these transformed E. coli cells were grown in LB agar medium containing 100 μg/mL of ampicillin. A single colony was picked the following day and grown in 400 mL batches of bacterial medium containing ampicillin (100 μg/mL) at 37° C., with continuous shaking at 200 rpm overnight. Bacterial cultures were pelleted by centrifugation (4000×g, 15 minutes) and resuspended in lysis buffer (10 mL/400 mL culture). The cells were disrupted by sonication (Sonicator 3000, Misonix) and centrifuged at 14,000 rpm for 30 minutes (at 4° C.). The cleared lysate was filtered in successive filters containing pore sizes of 1.20 μm, 0.8 μm and 0.2 μm and loaded onto a nickel-agarose affinity chromatography column on an ÄKTA Purifier system. The column was washed with 20 mL of the lysis buffer and the His6-tagged AKR1C3 protein was eluted with lysis buffer supplemented with 500 mM imidazole. The protein was further purified by a liquid chromatography gel filtration column (Superdex 200 HR16/60) using lysis buffer (supplemented with 5% v/v glycerol) and 1 mM DTT (pH 7.0) at a flow rate of 0.3 mL/min. Protein was monitored by absorbance at 280 nm, and purity of the fractions (1 mL) was assessed by SDS-PAGE. Active fractions containing the purified protein were pooled and concentrated by centrifugation (3,000×g, 4° C.) on a Vivaspin concentrator (MWCO 10,000 cutoff; GE Healthcare). The protein containing solution was supplemented with glycerol (to a final concentration of 15%, v/v) and NADP^+ was added to a final concentration of 2 mM.
Kinetic parameters of compounds of the invention were determined in a 96-well plate format. The 100 mM potassium phosphate buffer used in this assay was made with the following reagents to a pH of 7.4: • 0.5 M K2HPO4— 8.2 mL • 0.5 M KH2PO4— 1.8 mL • BSApowder—25 mg • Milli Q water—40 mL
For the assay, 2 μL of varying substrate concentrations were incubated with 94 μL of the potassium phosphate buffer and 2 μL of 5 mM NADPH for 5 minutes in the pre-warmed (37° C.) plate chamber of a Molecular Devices SpectraMax M2 plate reader. Purified AKR1C3 enzyme (2 μL) was added to a final concentration of […] in each well using an Eppendorf electronic multi-channel pipette. Absorbance measurements were recorded immediately upon addition of enzyme over a period of 5 minutes at a wavelength of 400 nm. Absorbance changes for each compound concentration were plotted against time to obtain the rate of absorbance change over the 5 minute period. The rate of absorbance change was then plotted against the compound concentration and non-linear regression analysis and Michaelis-Menten curve fitting performed on GraphPadPrism (version 5.00 for Windows, GraphPad Software, San Diego Calif. USA) in order to determine kinetic parameters of compounds.

[2] = system: H460 lung cancer xenografts; experiment: Tumour growth delay, H460 xenografts; type: in vivo, NIH-III mice; details: q4dx3 intraperitoneal; SN34454 237, 602 178, 641 178 μmol/kg; FIG. 2
Excerpt: Specific pathogen-free female homozygous nude NIH-III (NIH-Lyst^bg Foxn1^nu Btk^xid) mice were bred by the Vernon Jansen Unit (shared vivarium, University of Auckland). Animals were housed in Techniplast microisolator cages and provided with a standard twelve hour day-night light schedule. Animals received standard rodent diet (Harlan Teklad diet 2018i) and water ad libitum. All animal studies were approved by the University of Auckland Animal Ethics Committee.
Animals weighed 18-25 g at the time of tumour inoculation. Tumours were grown subcutaneously on the right flank of mice by inoculating cells grown in tissue culture (1×10^7 cells in 100 uL serum free α-MEM). Tumour sizes were monitored three times weekly using electronic callipers and treatments were initiated once tumour diameter reached ≥7 mm.
Tumour bearing mice were randomised into the appropriate treatment groups and tumour size and body weight recorded. Test compounds were formulated on the day of the experiment and kept in foil-wrapped tubes out of direct fluorescent light. […] Mice were treated with a single (or q4dx3 or q4dx4 or q4dx6) dose of a compound of the invention by intraperitoneal injection and thereafter tumour size and body weight was monitored every second day. Tumour volume was calculated as […] (l×w×w)/6, where l is the major axis and w is the perpendicular minor axis. […]

[3] = system: mixed HCT116 colon cancer MCLs containing 5% AKR1C3 over-expressing cells; experiment: High cell density multicellular layer (MCL) assay, bystander cell killing; type: cell-based, human
Protocol: The MCL model utilised for this evaluation consisted of AKR1C3 overexpressing (activator) cells or non-AKR1C3 expressing (target) cells or a mixture of these two cell types grown in a ratio of 5:95. The mixture of the two distinct cell populations enabled the determination of the extent of the transfer of cytotoxic metabolites from the activator cell to the target cell population.
Plating efficiencies were calculated as the fraction of colonies formed relative to the number of cells seeded. The compound concentrations for 10% survival (C10) of target cells grown without activators (T), targets in co-culture (Tc) and activators in co-culture (Ac) was determined by interpolation. Bystander effect efficiency (BEE) was calculated as (Log C10T−Log C10Tc)/(Log C10T−Log C10Ac), where BEE is the measure of cytotoxic metabolite transfer. In contrast to PR-104A, preferred compounds of the invention have a minimal BEE, reducing off-target side effects from ablation of neighbouring non-AKR1C3 expressing cells. […]
After the 5 hour incubation, each insert was trypsinised in 0.07% trypsin in PBS for 10 minutes at 37° C. to dissociate the MCL into a single cell suspension. The dissociated cells were incubated for a further 10 minutes in α-MEM containing 10% FBS and 100 μg/ml DNAase I. Cells were then counted on a Z2 Coulter® Particle Count and Size Analyzer and resuspended in fresh medium. […]

Compound | kcat/Km (catalytic efficiency) [1] | Km [1] | kcat [1] | also measured
CS(=O)(=O)OCCN(CCBr)c1c(C(=O)NCCO)cc([N+](=O)[O-])cc1[N+](=O)[O-] [PR-104A, 2-((2-bromoethyl)(2-((2-hydroxyethyl)-carbamoyl)-4,6-dinitrophenyl)amino)ethyl methanesulfonate, reference compound] | 256,206 M^−1 s^−1 |  |  | 
CS(=O)(=O)OCCN(CCBr)c1c(C(=O)N2CCN(c3ccccc3)CC2)cc([N+](=O)[O-])cc1[N+](=O)[O-] [SN35028] | 3,980,137 M^−1 s^−1 | < 10 µM |  | 
O=[N+]([O-])c1ccc(N(CCBr)CCBr)c(S(=O)(=O)N2CCN(CC(O)CO)CC2)c1 (stereo not shown) [Compound 566, 3-(4-((2-(bis(2-bromoethyl)amino)-5-nitrophenyl)sulfonyl)piperazin-1-yl)propane-1,2-diol] | 2,084,888 M^−1 s^−1 |  |  | 
CN1CCN(S(=O)(=O)c2cc([N+](=O)[O-])ccc2N(CCBr)CCOS(C)(=O)=O)CC1 [Compound 602, 2-((2-bromoethyl)(2-((4-methylpiperazin-1-yl)sulfonyl)-4-nitrophenyl)amino)ethyl methanesulfonate] | 2,370,091 M^−1 s^−1 |  | 78.5 s⁻¹ | anti-tumour efficacy (mean tumour volume) [2]: significantly more active than the prior art compound SN34454
N#Cc1cccc2c1CCN(C(=O)c1cc([N+](=O)[O-])cc([N+](=O)[O-])c1N(CCBr)CCBr)C2 [SN34951] | 3,419,286 M^−1 s^−1 | < 10 µM |  | 
CN1CCN(S(=O)(=O)c2cc([N+](=O)[O-])ccc2N(CCOS(C)(=O)=O)CCOS(C)(=O)=O)CC1 [Compound 641, ((2-((4-methylpiperazin-1-yl)sulfonyl)-4-nitrophenyl)azanediyl)bis(ethane-2,1-diyl) dimethanesulfonate] | 1,922,414 M^−1 s^−1 |  | 41.3 s⁻¹ | anti-tumour efficacy (mean tumour volume) [2]: significantly more active than the prior art compound SN34454; bystander effect at exposures <1.2 μM·h ([3]; exposures <1.2 μM·h): not effecting the clonogenic survival of AKR1C3-negative cells; also recorded: no bystander effect; bystander effect at exposures above 1.2 μM·h ([3]; exposures above 1.2 μM·h): modest bystander effect; inhibition of metabolism by AKR1C3 at high substrate concentrations (concentration above which seen) ([1]; FIG. 1, rate of metabolism as a function of drug concentration, 641 up to 300 μM): not observed
O=C(c1cc([N+](=O)[O-])cc([N+](=O)[O-])c1N(CCBr)CCBr)N1CCc2ccccc2C1 [SN34947] | 3,059,088 M^−1 s^−1 | < 10 µM |  | 
CN1CCN(C(=O)c2cc([N+](=O)[O-])ccc2N(CCBr)CCOS(C)(=O)=O)CC1 [SN34454, reference compound] | 1,738,985 M^−1 s^−1 |  |  | 
CS(=O)(=O)OCCN(CCBr)c1ccc([N+](=O)[O-])cc1S(=O)(=O)N1CCN(CC(O)CO)CC1 (stereo not shown) [Compound 605, 2-((2-bromoethyl)(2-((4-(2,3-dihydroxypropyl)piperazin-1-yl)sulfonyl)-4-nitrophenyl)amino)ethyl methanesulfonate] | 1,645,614 M^−1 s^−1 |  | 28.1 s⁻¹ | 
CN1CCN(C(=O)c2cc([N+](=O)[O-])ccc2N(CCBr)CCBr)CC1 [SN34118, reference compound] | 2,045,579 M^−1 s^−1 | < 10 µM |  | 
